According to the supplement of paper PMC10126150:
Sequences with one replicate were seen in a single cluster, so their values are uncertain.

Tested on: ATP
Experiment: switch fluorescence ratio, 500 uM ATP over buffer (Cy3 cluster intensity, sum of 5 cycles each) (fold (ratio)); higher = stronger signal-on switching upon ATP binding; sequences stand for … in TCGTCGGCAGCGTCAGATGTGTATAAGAGACAGTTTTTTTTTTTTTTTTTTTTTTTTT…TC
Conditions: aptamer strand: ATP DNA aptamer (quencher-CACCTGGGGGAGTATTGCGGAGGAAGG + anchor), 100 nM annealed; ATP concentration: 500 uM; one replicate
Procedure, shortened: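 Five buffer/ATP imaging cycles were run on Cy3-labelled switching-strand clusters on a modified Illumina MiSeq flow-cell, with NaOH stripping and re-annealing between cycles. In each cycle, clusters annealed to 100 nM quencher-labelled ATP aptamer were imaged in selection buffer, then after 15 min with 500 uM ATP at 22 °C. Per cluster, the fluorescence ratio is summed target-cycle over summed buffer-cycle Cy3 intensity, averaged per switch-domain sequence. Only clusters within 100-1000 RFU were kept.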
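Also: ATP exposure 15 min at 22 °C before imaging.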

AGACTAATGG
switch fluorescence ratio: 1.04

TTACAATCTC
switch fluorescence ratio: 1.01

GGAAATAGGG
switch fluorescence ratio: 0.999

CAGAATCGGC
switch fluorescence ratio: 0.984

CTAAACAATG
switch fluorescence ratio: 1.04

GTCAGTATGC
switch fluorescence ratio: 0.995

AGAGATCACC
switch fluorescence ratio: 1.02

GGGGATAAAT
switch fluorescence ratio: 0.999

GTGAATAGCC
switch fluorescence ratio: 0.933

TTCGCCAAAG
switch fluorescence ratio: 1.02

CCTTCTTCTT
switch fluorescence ratio: 1.02

CAGTAACCA
switch fluorescence ratio: 1.03

AACGCCCCAA
switch fluorescence ratio: 1.08

GCGAGAGGGC
switch fluorescence ratio: 1.09

CTAAGGCTAT
switch fluorescence ratio: 1

TCGACGGGG
switch fluorescence ratio: 1.07

AGATGTCAA
switch fluorescence ratio: 0.959

TTGACACCCT
switch fluorescence ratio: 1.2

CTAAGGGAAA
switch fluorescence ratio: 1.1

CATATTAGTG
switch fluorescence ratio: 1.03

ACTCTCTTCG
switch fluorescence ratio: 1.05

ATTTTGAGG
switch fluorescence ratio: 0.949

ATGCCCCTGG
switch fluorescence ratio: 1.07

GGGATCGACG
switch fluorescence ratio: 0.947

TGGAAAGCAA
switch fluorescence ratio: 1.4

TTCTCGAATG
switch fluorescence ratio: 1.01

ACGACTTTCA
switch fluorescence ratio: 1

TAAGAGTAAG
switch fluorescence ratio: 1.01

ACTGACGAAA
switch fluorescence ratio: 1.18

ATGATGAAAC
switch fluorescence ratio: 1.02

TTCATGGGTA
switch fluorescence ratio: 0.98

CTGGCCGAAT
switch fluorescence ratio: 1.04

TAATGTACAC
switch fluorescence ratio: 1.05

TGGGTTTGAA
switch fluorescence ratio: 1.01

GAGCACTATG
switch fluorescence ratio: 1.06

CGCGAGTTAT
switch fluorescence ratio: 1.03

CCCGTGGGGC
switch fluorescence ratio: 1.04

GACGGTTG
switch fluorescence ratio: 0.927

ACCCACTTGC
switch fluorescence ratio: 1.41

TGTGTACTTC
switch fluorescence ratio: 1.03

ATTATGTCCT
switch fluorescence ratio: 1.02

GGATGAAGAA
switch fluorescence ratio: 1.02

AGGAGATAGT
switch fluorescence ratio: 1

GATGCCGGGT
switch fluorescence ratio: 1.84

GCGCAATCGT
switch fluorescence ratio: 1.75

GGGGCTGCTC
switch fluorescence ratio: 0.976

AGTTAGTAAA
switch fluorescence ratio: 0.97

GCAAGTAGTC
switch fluorescence ratio: 1.2

GTAAGAGAGG
switch fluorescence ratio: 0.967

CGATACACTT
switch fluorescence ratio: 1.06

CTTAGTATGC
switch fluorescence ratio: 0.99

ACAGTGTGCA
switch fluorescence ratio: 0.988

ACCAGATAAC
switch fluorescence ratio: 1.04

TTCTGCGGAG
switch fluorescence ratio: 1.03

ATGCAGGATC
switch fluorescence ratio: 1.03

CACATGGGGA
switch fluorescence ratio: 1.04

TTCGCTACGC
switch fluorescence ratio: 1.07

GCAACTTGCA
switch fluorescence ratio: 1.03

GGCGATTACT
switch fluorescence ratio: 1.05

AGCTAAAGGG
switch fluorescence ratio: 1.05

AAGTGTAA
switch fluorescence ratio: 1.02

GCGCACGTGG
switch fluorescence ratio: 1.06

GAGAGGTGCC
switch fluorescence ratio: 1

TGGCGGCTAT
switch fluorescence ratio: 0.983

TCGGGTGTGC
switch fluorescence ratio: 0.956

TTGATGACGA
switch fluorescence ratio: 0.97

CTGATGGCAG
switch fluorescence ratio: 1.11

GTTGCTATGG
switch fluorescence ratio: 0.999

ATGGAGCCGG
switch fluorescence ratio: 1.09

ATATCCAAAT
switch fluorescence ratio: 1

TGGAATCCTG
switch fluorescence ratio: 0.978

AAAACATCTA
switch fluorescence ratio: 0.988

CGAGCCTGTT
switch fluorescence ratio: 0.966

GAAGTAAATT
switch fluorescence ratio: 0.986

CGCGGGGG
switch fluorescence ratio: 1.03

AGCGGGCACG
switch fluorescence ratio: 0.986

TAGATGACAA
switch fluorescence ratio: 0.943

GGCCTAGAAA
switch fluorescence ratio: 0.997

TGGCCTTCAT
switch fluorescence ratio: 1.22

TTGACCAGGC
switch fluorescence ratio: 1.06

GGTAGCGGGC
switch fluorescence ratio: 0.956

CTGGGCGGCA
switch fluorescence ratio: 1.04

AGATGACTCA
switch fluorescence ratio: 0.962

ACACCCGAGC
switch fluorescence ratio: 1.07

TCCACTGGGC
switch fluorescence ratio: 1.07

GATATTGTGC
switch fluorescence ratio: 1

TTTCGGAATC
switch fluorescence ratio: 1.03

TAATAATAGT
switch fluorescence ratio: 0.961

CCGGGTAGCG
switch fluorescence ratio: 0.993

CCAAAGTGGA
switch fluorescence ratio: 1.05

TCGTGTCTCA
switch fluorescence ratio: 1.02

CGACTTATCA
switch fluorescence ratio: 0.958

TTGCGTCCTG
switch fluorescence ratio: 0.988

CTATAGGCTT
switch fluorescence ratio: 0.995

CCATCCCGGT
switch fluorescence ratio: 1.1

GTTAGGGTCC
switch fluorescence ratio: 0.968

CTGAGACCTG
switch fluorescence ratio: 1.01

ATATGAGAAA
switch fluorescence ratio: 1.03

CTACAAACGA
switch fluorescence ratio: 1.35

ATAGCCCAAA
switch fluorescence ratio: 0.97

TTTGTCCGCT
switch fluorescence ratio: 1.1

CGTGAGGGAT
switch fluorescence ratio: 1.01

GGGTAGTTTG
switch fluorescence ratio: 0.963

AGTAAAGGG
switch fluorescence ratio: 1.02

GATTACCGGC
switch fluorescence ratio: 1.04

TTTTAGCTTT
switch fluorescence ratio: 1.11

CGCTATAGGC
switch fluorescence ratio: 1.04

ACGCCACCCT
switch fluorescence ratio: 1.62

TAGAAAGATC
switch fluorescence ratio: 0.973

GCTTCCGGGC
switch fluorescence ratio: 1.31

CATACGGCGT
switch fluorescence ratio: 1.04

AGGCGTCTGT
switch fluorescence ratio: 1.02

AATTCGTAAG
switch fluorescence ratio: 1

CTGGACACCA
switch fluorescence ratio: 0.997

AAAGTACTGC
switch fluorescence ratio: 1.15

TGATTTAGCC
switch fluorescence ratio: 0.991

GGTGCCAGAC
switch fluorescence ratio: 1.08

TGAGCGAAAC
switch fluorescence ratio: 0.969

ATAACCGAGT
switch fluorescence ratio: 1.07

TGGGCCATGC
switch fluorescence ratio: 1.06

TTTCGTATAG
switch fluorescence ratio: 1.28

ACCAGCGGGT
switch fluorescence ratio: 1.04

AAAATAGTTC
switch fluorescence ratio: 0.957

GCAATGAGTG
switch fluorescence ratio: 1.06

GGATCGGGG
switch fluorescence ratio: 0.998

GGACGACGCG
switch fluorescence ratio: 1.07

GAGTCTCACT
switch fluorescence ratio: 0.984

AAGAAAGTAG
switch fluorescence ratio: 1.05

GCGATATTTT
switch fluorescence ratio: 1.22

ATAACTCCCT
switch fluorescence ratio: 1.33

ACGCCGAGAT
switch fluorescence ratio: 1.11

GGTAGAGCAT
switch fluorescence ratio: 0.996

GAAACAGACT
switch fluorescence ratio: 1.16

TCGGCATTTA
switch fluorescence ratio: 1.04

CGTTGGTTTA
switch fluorescence ratio: 0.996

CTTAGTGCAG
switch fluorescence ratio: 0.987

GTGTACTTGG
switch fluorescence ratio: 1.05

CCCGATCAAG
switch fluorescence ratio: 1.1

GCCATTACTC
switch fluorescence ratio: 2.07

TCACGGTATT
switch fluorescence ratio: 1.14

GTACTGATCC
switch fluorescence ratio: 1.06

CCAATCAGCT
switch fluorescence ratio: 1.02

AACGGCTCAA
switch fluorescence ratio: 0.996

GATAACGTAG
switch fluorescence ratio: 0.989

GCATGGGCAA
switch fluorescence ratio: 1.02

CGAGCCATGA
switch fluorescence ratio: 1.02

TTCTGGCGTG
switch fluorescence ratio: 0.987

CATCCAGGAT
switch fluorescence ratio: 1.06

CAAGACCCGC
switch fluorescence ratio: 1.07

TCGTTGATCG
switch fluorescence ratio: 1.02

TTGTCTACCT
switch fluorescence ratio: 1.05

AGGGCATGGT
switch fluorescence ratio: 0.959

CGATTAGCAG
switch fluorescence ratio: 1.05

AGGTAAATTT
switch fluorescence ratio: 0.959

TATAGAGTGG
switch fluorescence ratio: 1

ACAAGACAGG
switch fluorescence ratio: 0.999

AAGGCGTCCG
switch fluorescence ratio: 0.95
